Measured values published in ChEMBL document CHEMBL4888484, “Replenishing the malaria drug discovery pipeline: Screening and hit evaluation of the MMV Hit Generation Library 1 (HGL1) against asexual blood stage Plasmodium falciparum ,using a nano luciferase reporter read-out” (2022).
Among all 150,000 compounds or so, about 540 (0.36%) showed an effect of 50% or more. This is one part of the list.

system: Plasmodium falciparum; experiment: Primary screen in NF54 nanoGlo assay, in single point, at 2uM, 72h; a lower Z score goes with more inhibition; assay type: functional, Erythrocyte; conditions: timepoint 72 hour

Structure (SMILES)	% Inhibition	Z score
COCCC[C@H]1CCCCN1C(=O)c1c[nH]c(C)cc1=O	-7%	1.57
CCN(CC(=O)NC)S(=O)(=O)c1ccccc1OC(F)(F)F	5%	-0.9
COCC(=O)N[C@@H]1CCN(C(=O)Cc2ccc(F)cc2)C[C@@H]1CO	2%	-0.23
CC(C)Cn1ncnc1CS(=O)(=O)[C@H]1CCCOC1	-1%	0.19
CN(Cc1ccc(Br)cc1)Cn1nnc2ccccc2c1=O	-16%	2.3
COC(=O)N1CCCC(C(=O)OC2CCC3CCCCC3C2)C1 (stereo not drawn)	-9%	1.01
COCc1nc(OC)cc(N2CC(c3n[nH]c(C)n3)C2)n1	-7%	1.21
C[C@@H](CN(C)Cc1c(F)cccc1Cl)CS(C)(=O)=O	-4%	0.5
CCc1nnc(CNC(=O)c2cc(CC(C)C)no2)s1	-14%	1.9
C=CCNC(=O)c1cc(Br)cc(Br)c1OC	38%	-1.25
Cc1ccc(-c2cccc(CN(C)C3CCS(=O)(=O)CC3)c2)o1	-8%	1.26
CCN1C(=O)NC(=O)C12CCN(C(=O)CCc1scnc1C)CC2	-9%	1.14
NC(=O)C(c1ccccc1)N1CCOC(c2ccc(Cl)cc2)C1 (stereo not drawn)	-11%	1.59
CCOC(=O)N1CCN(C(=O)C[C@@H]2NC(=O)N(c3ccc(C(C)C)cc3)C2=O)CC1	7%	-0.92
CCN1CCC(NCc2csnn2)C1c1cc(F)c(F)c(F)c1 (stereo not drawn)	7%	-0.89
CN(C(=O)[C@@H]1COc2ccc(Br)cc21)c1ccnn1C	-6%	0.47
CCc1cc(O)nc(Cn2nnc(-c3ccccc3)n2)n1	34%	-3.81
Nc1c2c(-c3ccc(F)cc3)nc(N3CCN(C4CCCCC4)CC3)nc2nn1-c1ccc(Cl)cc1	19%	-2.19
CNC(=O)c1noc(CNC(=O)c2ccncc2C)n1	-12%	2.01
FC(F)(F)[C@H]1C2CCC(CC2)[C@@H]1c1nc(-c2ccncc2)no1	3%	-0.38
CC(NC(=O)OC(C)(C)C)c1noc(CC2C=CCC2)n1 (stereo not drawn)	12%	-1.65
COc1ccc(-c2n[nH]c3c2[C@@H](c2cccc(OC)c2)CC(=O)O3)cc1	8%	-1.05
O[C@]1(c2ccccc2)CCN(Cc2ccncc2)C[C@H]1N1CCCC1	14%	-1.79
C1CCC2C(C1)CCCN2Cc1nc(C2CC2)no1 (stereo not drawn)	-11%	1.06
